{
  "source": "PubChem BioAssay AID493131",
  "about": "(Broad Institute, 2011)",
  "note": "The whole screen tested about 340,000 compounds, of which about 3,300 (0.97%) were called active. The inconclusive results got no clear call from the source; some entries with a clear call stand among them for comparison.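 How the source made its calls: active means mean activation above about 17%, with every replicate also reaching it (limit read from the data, passing the limit was not always enough); inconclusive means only one of the two conditions met; inactive means the rest.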",
  "data": [
    {"target": "Protein FosB (Mus musculus) (UniProt P13346)", "sequence (P13346 whole entry, looked up)": "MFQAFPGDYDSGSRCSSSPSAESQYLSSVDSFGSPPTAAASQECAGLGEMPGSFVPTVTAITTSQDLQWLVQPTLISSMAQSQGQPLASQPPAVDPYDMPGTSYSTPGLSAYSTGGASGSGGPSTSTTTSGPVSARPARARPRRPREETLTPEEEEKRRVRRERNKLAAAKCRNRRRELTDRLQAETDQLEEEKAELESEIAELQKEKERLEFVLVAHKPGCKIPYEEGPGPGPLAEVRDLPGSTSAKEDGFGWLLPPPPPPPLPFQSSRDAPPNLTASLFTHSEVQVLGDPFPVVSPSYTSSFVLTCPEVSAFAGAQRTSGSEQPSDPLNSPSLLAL", "test": "enhancers of mouse delta FosB DNA binding – biochemical, fluorescence polarization, TAMRA-CDK5 oligo, single point, primary screen (AID 493131);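 further: fluorescence polarization rise as delta FosB binds a TAMRA Cdk5 AP-1 oligo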", "settings": "purified delta FosB, at 25 µM, stronger effect = higher value, percent of positive-control signal above neutral wells", "values": [
      {"compound": "Cc1ccc(Nc2nc(N)c([N+](=O)[O-])c(NCc3ccco3)n2)cc1C", "activation": "inconclusive: 21.3%"},
      {"compound": "CC1=C(C(=O)OCc2ccc3c(c2)OCO3)C(c2ccccc2)NC(=O)N1", "note": "(configuration not stated)", "activation": "inactive: -4.42%"},
      {"compound": "O=C(N/N=C/c1ccc(OC(F)F)cc1)c1ccc(CSc2nc3ccccc3[nH]2)cc1", "activation": "inconclusive: 16.3%"},
      {"compound": "Cc1nnc(SCC(=O)N2c3ccccc3C(C)(c3ccccc3)CC2(C)C)s1", "note": "(configuration not stated)", "activation": "inactive: -14.6%"},
      {"compound": "CC(=O)Nc1ccc(S(=O)(=O)N2CCC(NC(=O)c3ccccc3)CC2)cc1", "activation": "inactive: 3.46%"},
      {"compound": "CC(C)Nc1ccc(C(CC(N)=O)NC(=O)Cc2ccc(Br)cc2)cc1[N+](=O)[O-]", "note": "(configuration not stated)", "activation": "inconclusive: 18.1%"},
      {"compound": "COc1cccc(-c2nc(-c3ccc(NC(=O)c4ccncc4)cc3)no2)c1", "activation": "inconclusive: 36%"},
      {"compound": "NS(=O)(=O)c1cccc(NC(=O)CSc2nnc(-c3ccccc3)o2)c1", "activation": "inconclusive: 34.2%"},
      {"compound": "CC1(C)CC(c2nc(-c3ccc([N+](=O)[O-])cc3)cs2)CCO1", "note": "(configuration not stated)", "activation": "inactive: -0.88%"},
      {"compound": "O=C(O)c1ccccc1-c1c2cc(I)c(=O)c(I)c-2oc2c(I)c(O)c(I)cc12", "activation": "inconclusive: 21.1%"},
      {"compound": "Cc1cccc(-c2noc(CN(C)C(=O)c3ccco3)n2)c1", "activation": "inactive: -10.9%"},
      {"compound": "COc1ccc(-c2nn(C)c(=O)c3ccccc23)cc1NC(=O)Cn1nc(C)c2ccccc2c1=O", "activation": "inactive: 10.7%"},
      {"compound": "COc1ccccc1/C=N/NC(=O)c1c(-c2ccccc2)noc1C", "activation": "inactive: -10.1%"},
      {"compound": "O=C1COc2ccc(C(=O)CSc3nc4ccccc4c(=O)n3-c3ccc(Cl)c(Cl)c3)cc2N1", "activation": "active: 56.3%"},
      {"compound": "ON=C1c2cc(OCCN3CCCCC3)ccc2-c2ccc(OCCN3CCCCC3)cc21", "activation": "inconclusive: 16.1%"},
      {"compound": "O=C(NC1CCCc2ccccc21)C1CCN(S(=O)(=O)c2cccc3nsnc23)CC1", "note": "(configuration not stated)", "activation": "inconclusive: 22.7%"},
      {"compound": "COc1ccc(NC(=O)COC(=O)CCCC2=NS(=O)(=O)c3ccccc3N2)cc1Cl", "activation": "inconclusive: 20.5%"},
      {"compound": "CCN(C(=O)COC(=O)c1cnc(C)cn1)c1c(N)n(Cc2ccccc2)c(=O)[nH]c1=O", "activation": "inactive: -1.75%"},
      {"compound": "CCCCn1c(SCC(=O)OCC)nc2c(sc(=S)n2-c2ccccc2OC)c1=O", "activation": "inactive: -5.09%"},
      {"compound": "COc1ccc(NC(=O)c2sc3ncnc(N4CCN(c5ccccn5)CC4)c3c2C)cc1Cl", "activation": "inconclusive: 18.5%"},
      {"compound": "COc1cc2c(cc1OC)-c1cc(Nc3ccc(C(=O)O)cc3)nc(=O)n1CC2", "activation": "inconclusive: 23.9%"},
      {"compound": "COc1ccc(-c2ccc(C#N)c(SCC(=O)NCCc3ccccc3)n2)cc1OC", "activation": "inconclusive: 17.1%"},
      {"compound": "CCCCCn1c(=O)[nH]c2cc(C(=O)NCCc3ccc(OC)c(OC)c3)ccc2c1=O", "activation": "inconclusive: 16.9%"},
      {"compound": "COc1ccccc1CCNC(=O)c1cc(-c2ccccn2)nc2ccccc12", "activation": "inactive: -3.62%"},
      {"compound": "O=C(CSc1nc2ccccc2c(=O)n1Cc1ccc(Cl)cc1)NCc1cccs1", "activation": "active: 26.8%"},
      {"compound": "O=C(Nc1cccc([N+](=O)[O-])c1)Nc1cnccn1", "activation": "active: 27.4%"},
      {"compound": "Cc1ccc(C)c(OCc2nnc(NC(=O)c3ccc4c(c3)OCO4)s2)c1", "activation": "inconclusive: 23.2%"},
      {"compound": "O=C(N/N=C/C=C/c1ccccc1)c1cc2c(ccc3ccccc32)o1", "activation": "inconclusive: 16.5%"},
      {"compound": "CCCn1c(SCC(=O)N2CCCC(C)C2)nnc1-c1ccccn1", "note": "(configuration not stated)", "activation": "inactive: -1.19%"},
      {"compound": "NC(=O)c1c(NC(=O)c2cccs2)sc2c1CCCCCC2", "activation": "inconclusive: 18.6%"},
      {"compound": "CC(C)C[C@H]1CNC(=S)N1CC1CCCN1C[C@H](Cc1ccc(O)cc1)N1C[C@H](Cc2ccccc2)N(CC2CCCCCC2)C1=S", "note": "(some centres not stated)", "activation": "inconclusive: 22.8%"},
      {"compound": "O=C(Cn1cnc2c(cnn2-c2ccc(F)cc2)c1=O)N1CCN(c2ccccc2F)CC1", "activation": "inconclusive: 21.2%"},
      {"compound": "O=C(Cn1c(=O)n(Cc2ccco2)c(=O)c2ccccc21)Nc1cccc(Cl)c1", "activation": "inconclusive: 18.2%"},
      {"compound": "Cc1ccc(-c2c[n+](CC(=O)Nc3nc(-c4ccc(F)cc4)cs3)c3n2CCC3)cc1", "activation": "inconclusive: 18.4%"},
      {"compound": "Cc1nc2sc(C(=O)Nc3ccccc3Cc3ccccc3)c(C)c2c(=O)[nH]1", "activation": "inconclusive: 19.4%"},
      {"compound": "Cc1ccc(C)c(OCC(O)CN2CCN(CCN3C(=O)c4cccc5cccc(c45)C3=O)CC2)c1", "note": "(configuration not stated)", "activation": "inconclusive: 44.7%"},
      {"compound": "N#CCCN(C(=O)COC(=O)CCc1ccccc1)c1ccccc1", "activation": "inactive: 3.88%"},
      {"compound": "O=C(CSc1n[nH]c(-c2ccc(S(=O)(=O)N3CCCCC3)cc2)n1)Nc1nccs1", "activation": "active: 63.6%"},
      {"compound": "O=C(Nc1ccccc1)Nc1nnc(CSCc2ccccc2Cl)s1", "activation": "inconclusive: 24.6%"},
      {"compound": "C#CCOCCOCCOCCNc1nc(N2CCN(C(=O)[C@H]([C@@H](C)CC)n3cc([C@@H](N)CC(C)C)nn3)CC2)nc(N2CCN(C(=O)[C@H](CCCCN)n3cc([C@@H](N)C(C)CC)nn3)CC2)n1", "note": "(some centres not stated)", "activation": "inconclusive: 20.7%"},
      {"compound": "Cc1ccc(NC(=O)CCn2c(=O)c3cccn3c3ccccc32)c(C)c1", "activation": "inconclusive: 20.5%"},
      {"compound": "Cc1cccc(-n2nnc(C(=O)Nc3ccc(F)cc3)c2N)c1", "activation": "inconclusive: 20.1%"},
      {"compound": "Nc1ccc(-c2nc3nc(N)nc(N)c3nc2-c2ccc(N)cc2)cc1", "activation": "inconclusive: 21.7%"},
      {"compound": "Cc1ccccc1NC(=O)CN1CCN(Cc2ccccc2)CC1", "activation": "inactive: 0.631%"},
      {"compound": "COc1cc(/C=C/C(=O)OCC(=O)N2CCCC2)ccc1OCC#N", "activation": "inactive: -2.13%"},
      {"compound": "Cc1cc(C)cc(NC(=O)NC2CCN(CC(=O)Nc3cccc(Cl)c3C)CC2)c1", "activation": "inconclusive: 18.8%"},
      {"compound": "COc1ccc2nc(C)cc(SCC(=O)N/N=C/c3ccc(O)cc3O)c2c1", "activation": "inconclusive: 19.4%"},
      {"compound": "CSc1ncccc1C(=O)Nc1nc2ccc(Oc3ccccc3)cc2s1", "activation": "inconclusive: 17%"},
      {"compound": "NC(=O)c1ccc(Nc2nnc(-c3ccc(O)cc3)c3ccccc23)cc1", "activation": "inconclusive: 16.5%"},
      {"compound": "COc1ccc(C2Nc3ccc4ccccc4c3-c3c2c(=O)oc2ccccc32)cc1", "note": "(configuration not stated)", "activation": "inconclusive: 20.8%"},
      {"compound": "Cc1ccc(C(=O)N/N=C\\c2cc3c(cc2Br)OCO3)s1", "activation": "inconclusive: 22.6%"},
      {"compound": "CCOc1ccc2nc(SCC(=O)NC3CCCc4ccccc43)sc2c1", "note": "(configuration not stated)", "activation": "inconclusive: 16.3%"}
    ]}
  ]
}
